# PubChem BioAssay AID488969 (Vanderbilt High Throughput Screening Facility, 2010)
# The full ranking holds about 110,000 compounds; the median of “z-score” is about -0.1, and the highest 2% start at about 2. This is one part of the list. Activity calls are given as the source filed them.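 The calls were made as follows: active = z-score in the third read window above 3 or below -3; inactive = the rest.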
# Target: Metabotropic glutamate receptor 8 (Rattus norvegicus) (UniProt P70579)
# Assay: mGluR8 Gi/Go-coupled signaling modulation – cell-based, rat, thallium flux, HTS, primary screen (AID 488969)
# Details: HEK293 rat mGluR8, GIRK (G protein-gated inwardly rectifying potassium channel) thallium flux, FluoZin2; at 10 µM; stronger effect = higher value; submaximal glutamate (EC20) added with thallium
# Chain of UniProt P70579 (P70579 whole entry, looked up): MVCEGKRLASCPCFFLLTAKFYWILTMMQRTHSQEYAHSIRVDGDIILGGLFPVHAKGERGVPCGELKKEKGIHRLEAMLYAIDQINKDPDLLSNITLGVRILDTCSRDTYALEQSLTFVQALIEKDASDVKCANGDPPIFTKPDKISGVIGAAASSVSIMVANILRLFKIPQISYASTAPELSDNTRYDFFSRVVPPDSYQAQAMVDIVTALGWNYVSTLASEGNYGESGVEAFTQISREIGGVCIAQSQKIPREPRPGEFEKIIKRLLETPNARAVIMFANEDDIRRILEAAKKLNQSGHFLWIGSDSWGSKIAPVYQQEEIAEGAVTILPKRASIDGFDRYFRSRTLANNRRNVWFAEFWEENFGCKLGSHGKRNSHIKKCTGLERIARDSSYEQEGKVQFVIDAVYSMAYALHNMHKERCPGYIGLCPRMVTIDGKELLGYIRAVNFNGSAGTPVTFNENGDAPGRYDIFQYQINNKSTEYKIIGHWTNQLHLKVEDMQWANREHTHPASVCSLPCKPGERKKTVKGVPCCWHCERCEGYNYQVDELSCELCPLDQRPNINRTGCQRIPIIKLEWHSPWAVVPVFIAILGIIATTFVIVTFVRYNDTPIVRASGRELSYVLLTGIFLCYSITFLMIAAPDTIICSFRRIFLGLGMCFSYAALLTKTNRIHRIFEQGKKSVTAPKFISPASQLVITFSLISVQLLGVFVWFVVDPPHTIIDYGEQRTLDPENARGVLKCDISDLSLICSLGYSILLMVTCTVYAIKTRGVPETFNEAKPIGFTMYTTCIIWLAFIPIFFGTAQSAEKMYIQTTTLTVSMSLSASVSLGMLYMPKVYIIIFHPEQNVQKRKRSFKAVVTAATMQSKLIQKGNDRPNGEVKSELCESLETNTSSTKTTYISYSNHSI
row,Structure (SMILES),z-score
1,CCOC(=O)C1CCCN(C(=O)C2CC(=O)N(c3ccc(C)cc3)C2)C1 (stereo not given),-2.1
2,COc1ccc2c(c1)c1ncn(CCc3ccccc3)c(=O)c1n2C,0.684
3,CN(C)/C=C1\N=C(c2cccs2)OC1=O,0.519
4,CC(C)n1nnnc1SCC(=O)NCCc1ccccc1,-0.179
5,CCc1nc2c(c(=O)c3ccccc3n2C)c(=O)n1C1CCCCCC1,-2.48
6,COc1ccccc1C(=O)Nc1ccc(C(=O)N2CCCC2)cc1,-0.0336
7,O=C(CSc1ncccn1)Nc1ccc(S(=O)(=O)N2CCCCC2)cc1,-0.0172
8,CCCCn1c(SCc2nc3ccccc3s2)nc2ccccc2c1=O,0.425
9,COc1cccc(NC(=O)CSc2ccc3nnc(-c4ccncc4)n3n2)c1,-0.0299
10,Cc1ccc(Nc2nc(Cl)nc(N(C)C#N)n2)cc1,-0.567
11,O=S(=O)(N1CCCCC1)N1CCN(c2ccccc2F)CC1,-0.115
12,COc1ccc(/C=C/C(=O)N2c3ccccc3Sc3ccc(C(F)(F)F)cc32)cc1,0.00546
13,CNC(=O)COc1ncnc2sc(C)c(C)c12,0.311
14,Cc1ccc(N2N=C(c3ccc(Br)cc3)CCC2=O)cc1,-0.188
15,Cc1ccc(C(=O)N/N=C\c2ccc[nH]2)cn1,-0.399
16,O=C(Nc1ccc(Cl)c(Cl)c1)Nc1nnc(CC2=CCCCC2)s1,0.0021
17,CCN(CC)S(=O)(=O)c1ccc(Cl)c(OC)c1,-0.331
18,CCOC(=O)Nc1cc(C)ccc1OC,0.0736
19,CC1=C(C(=O)OC(C)C)C(C2CC=CCC2)NC(=O)N1 (stereo not given),0.893
20,CCCOC(=O)CC1C(=O)NCCN1Cc1ccc(F)cc1 (stereo not given),-0.392
21,CC(=O)c1c(C)[nH]c2ccccc2c1=O,0.0795
22,CC(C)(C)c1ccc(-c2nc3c(C#N)c(-c4ccc5c(c4)OCO5)ccn3n2)cc1,-0.0444
23,CC(C)NCC(O)COCCOc1ccc(C(C)(C)C)cc1 (stereo not given),0.0357

row,Structure (SMILES),z-score
1,CCOC(=O)c1ccc2ncc(C(=O)OCC)c(NCCCN3CCOCC3)c2c1,-0.106
2,Cc1cc(Cl)ccc1NC(=S)NCc1ccccc1Cl,0.000558
3,COc1ccc(S(=O)(=O)NCC(=O)N(CC(=O)NCC2CCCO2)c2cc(C)ccc2C)cc1 (stereo not given),0.673
4,O=C(O)c1ccnc(Cl)c1,-0.0797
5,O=C(O)CCC(=O)NCc1ccc(F)cc1,0.241
6,COc1ccc(/C(N)=N/OC(=O)Oc2ccccc2)cc1OC,-0.183
7,N/C(Cc1ccc([N+](=O)[O-])cc1)=N\OC(=O)Cc1ccccc1,0.0239
8,COc1ccc(S(=O)(=O)N(CC(=O)Nc2ccc(S(=O)(=O)N3CCOCC3)cc2)c2ccccc2)cc1,-0.235
9,NC(=O)Cc1cn(-c2ncc(C(F)(F)F)cc2Cl)c2ccccc12,-0.00807
10,CCOc1cccc2cc(-c3csc(NC(=O)CCC(=O)N4CCC(C)CC4)n3)c(=O)oc12,0.0524
11,Cc1sc(/N=C/c2ccccc2O)c(C#N)c1C,-0.0929
12,COc1ccccc1C(=O)O/N=C(\N)c1ccc(Cl)cc1,-0.217
13,O=C(Oc1ccc2c(c1)O/C(=C\c1ccncc1)C2=O)c1ccccc1,-0.47
14,Cc1cccc(OCCn2c(=S)[nH]c3ccccc32)c1,2.83
15,Cn1cnnc1SC(C(=O)Nc1cc(Cl)cc(Cl)c1)c1ccccc1 (stereo not given),0.103
16,CCOC(=O)/C(C#N)=C\c1ccc(CC)s1,0.605
17,CCCCNC(=O)C1CCN(C(=O)Nc2ccc(C)cc2)CC1,-0.231
18,COC(=O)c1ccc2ccn(CC(=O)NC3CCCCC3)c2c1,0.45
19,Cc1cccc(OCC(=O)NCC(=O)N/N=C/c2cc(Br)ccc2OCc2ccccc2)c1,-0.118
20,COC(=O)c1ccccc1NC(=O)CSc1n[nH]c(CC(C)C)n1,0.556
21,CCOc1ccc(C(C#N)N2CCOCC2)cc1OC (stereo not given),0.523
22,CC(C)C(NS(=O)(=O)c1ccc2c(c1)oc(=O)n2C)C(=O)N1CCN(c2ccccc2F)CC1 (stereo not given),-0.133
23,COc1ccc(C(=O)CSc2nnc(C(CO)NC(=O)c3ccc(OC)cc3)n2C)cc1 (stereo not given),0.235

row,Structure (SMILES),z-score
1,c1ccc(-c2cc(N3CCCCC3)ncn2)cc1,-0.267
2,Cc1cc(C)nc(N/N=C/c2ccccc2OCc2ccccc2)n1,0.694
3,COc1cccc(C(=O)Nc2ccc3nc(N4CCOCC4)cc(C)c3c2)c1,-2.16
4,CCN(CC)/C(=N/O)NC(=O)NS(=O)(=O)c1ccc(C)cc1,0.0872
5,CCCN(Cc1ccc(N(CC)CC)cc1)CC1CC1,2.1
6,O=C(c1cccc(-c2nnc(-c3ccccc3)o2)c1)N1CCCCCC1,0.0918
7,CNC(=O)c1cc2ccc(OC)cc2oc1=O,-0.333
8,O=C(O)C1(NS(=O)(=O)c2ccc(Cl)cc2)CCCCC1,-0.168
9,CCOC(=O)CN1C(=O)C(C)(C)Oc2ccc(C(=O)Nc3ccccc3OC)cc21,2.42
10,CCCC(=O)Nc1ccc(C(=O)NCCc2ccc(F)cc2)cc1,0.0822
11,COc1ccc(NC(=O)CSc2nnc(C3CCCCC3)n2-c2ccccc2)cc1,-1.1
12,CCCOc1ccc2c3c(c(=O)oc2c1OCCC)CCC3,-0.529
13,COc1ccc(CN2CCN(C)CC2)cc1OCc1ccccc1,0.342
14,Cc1ccc(S(=O)(=O)NCC(=O)N(CC(=O)NCc2ccccc2)CC2CCCO2)cc1 (stereo not given),-0.0118
15,CC(C)Nc1nc(NC(N)=S)nc(NC(C)C)n1,-0.369
16,COc1cccc(NC(=O)C(NCC2CCCCC2)c2ccccc2)c1 (stereo not given),-0.0907
17,CC(=O)Nc1cc2c(cc1C(=O)c1ccccc1)OCCO2,-0.506
18,CCCS(=O)(=O)c1nc(S(=O)(=O)c2ccc(C)cc2)c(NCCN2CCOCC2)s1,-0.364
19,CC(C)NC(=O)COC(=O)/C=C/c1ccco1,-0.222
20,OC(Cn1cccn1)c1ccccc1 (stereo not given),-0.858
21,O=C(CSc1nnc(-c2cccs2)n1Cc1ccccc1)NCc1ccc2c(c1)OCO2,-0.89
22,COc1ccc(-c2cc(=O)[nH]c(=O)[nH]2)cc1,-0.123
23,COc1ccc(CCN2C(=NC(=O)CCC(=O)O)SC3CS(=O)(=O)CC32)cc1 (stereo not given),-0.152

row,Structure (SMILES),z-score
1,O=[N+]([O-])c1ccc(NC2CCCC2)cc1,-0.0863
2,C=CCn1c(N)c(C(=O)OCC(C)C)c2nc3ccccc3nc21,-2.53
3,Cn1cnnc1SC(C(=O)Nc1cccc(C(F)(F)F)c1)c1ccccc1 (stereo not given),-0.377
4,O=C(O)c1c(Cl)c(Cl)c(Cl)c(Cl)c1C(=O)N1CCOCC1,0.376
5,Cc1cc(NS(=O)(=O)c2ccc(NC(=O)COc3ccccc3C(C)C)cc2)no1,-0.0255
6,CCOC(=O)N1CCN(C(=O)C(=O)Nc2ccc3nc4n(c(=O)c3c2)CCCCC4)CC1,-0.447
7,CC(=O)COc1ccc2c3c(c(=O)oc2c1C)CCCCC3,-0.492
8,Cc1ccc(C)c(N2CCN(C(c3ccncc3)c3nnnn3Cc3ccccc3)CC2)c1 (stereo not given),0.281
9,Cc1occc1C(=O)NNC(=O)C(c1ccccc1)c1ccccc1,-0.78
10,O=C(O)c1ccccc1NS(=O)(=O)c1cccc(C(F)(F)F)c1,-0.814
11,C/C(=N\NC(=O)c1ccc(C)cc1C)c1ccc(-n2ccnc2)cc1,-0.0942
12,COc1cccc(-c2cc3c(-n4cccc4)ncnc3o2)c1,-0.0571
13,O=C(NCC1CCCO1)c1ccc(CS(=O)(=O)Cc2ccc(F)cc2)o1 (stereo not given),0.407
14,COc1ccc(OCCC(=O)OCc2c(C)noc2C)cc1,-0.229
15,O=C(NCCCN1CCOCC1)c1cc(-c2ccc(O)cc2)on1,-0.342
16,CN(C(=O)Nc1ccc(Cl)cc1Cl)[C@H]1c2cc(Br)ccc2OC[C@H]1CO,-0.211
17,Cc1ccc(C)n1NC(=O)c1ccc(O)cc1,0.257
18,O=C(NCc1ccc(Cl)cc1)c1cc(=O)nc2sc(-c3ccccc3)nn12,0.238
19,CCCCNC(=O)CNC(=O)c1cccs1,0.132
20,CCN(CC)C(=O)c1c([N+](=O)[O-])c(C(C)(C)C)nn1C,0.0173
21,CCNS(=O)(=O)c1ccc(NC(=O)c2cncc(Br)c2)cc1,-0.176
22,Cc1cc(C(=O)N/N=C/c2cc(Br)cc(Br)c2OC(=O)c2ccccc2)n[nH]1,-0.0369
23,CCCCn1c(CCn2nc(C)c(Br)c2C)n[nH]c1=S,-0.487

row,Structure (SMILES),z-score
1,O=C(Nc1ccccc1C(=O)NCCN1CCOCC1)c1ccco1,-0.118
2,CCC(C)NC(=O)CSc1ncccc1C(=O)O (stereo not given),0.263
3,CCCN1CCN(CCCNC(=O)Cn2ncc3c4ccccc4n(C)c3c2=O)CC1,-0.237
4,Cc1ccc2nc(NC(=O)c3ccco3)sc2c1,-0.314
5,COC(=O)Cn1c(CCS(=O)(=O)c2ccc(C)cc2)nc2ccccc21,-2.31
6,COC(=O)Cc1c(C)nc2nc(NCc3ccccc3OC)[nH]n2c1=O,-0.36
7,C/C(=N\NC(=O)C1CC1(C)c1ccccc1)c1ccco1 (stereo not given),-0.213
8,CCCCCOc1ccc(/C=C/C(=O)NCCc2nc3ccccc3[nH]2)cc1OC,-0.533
9,CC1=NN(Cc2ccccc2)C(=O)C1C(c1ccc(Cl)cc1)C(C#N)C#N (stereo not given),0.0177
10,CC(=O)c1c(C(C)=O)c(C)n(NC(=O)c2ccccc2O)c1C,-0.206
11,O=C(c1ccco1)N1CCN(C/C=C/c2ccccc2)CC1,1.1
12,O=C(CN1C(=O)c2ccccc2S1(=O)=O)NC1CCCC1,-0.378
13,Cc1ccccc1OCC(=O)Nn1c(COc2ccccc2)nc2ccccc2c1=O,0.187
14,CCOC(=O)CC(=O)CSc1nc2c(sc(=S)n2-c2ccccc2)c(=O)[nH]1,-0.366
15,O=C1Nc2ccc(Br)cc2/C1=N/N=C/C1=C(N2CCOCC2)C(=C\c2ccccc2)/CC1,0.35
16,CN=C1c2c(-c3ccccc3)c3cc(OC)ccc3n2CCN1C,active: 4.2
17,c1ccc(N2CCOCC2)c(Nc2nc3ccccc3n3cnnc23)c1,0.446
18,COc1cccc(N2CC(C(=O)Nc3nnc(SCc4cccnc4)s3)CC2=O)c1 (stereo not given),0.711
19,COC(=O)Nc1ccc([N+](=O)[O-])cc1OC,-0.117
20,Cc1noc(C)c1S(=O)(=O)N1CCC(C(=O)N2CCN(C(=O)c3ccco3)CC2)CC1,-0.53
21,CCOC(=O)N1CCN(C(=O)c2csc3c2CCCCC3)CC1,0.806
22,CNC(=O)CSc1nnc(-c2cc3c(C)nn(-c4ccccc4)c3s2)n1C,-0.604
23,CC(=O)Nc1ccc(S(=O)(=O)/N=C2\SCCN2S(=O)(=O)c2ccc(NC(C)=O)cc2)cc1,0.684
